Source: PubChem BioAssay AID588579 (National Center for Advancing Translational Sciences (NCATS), 2011)
Hit rate of the full screen: of about 400,000 compounds, about 2,200 (0.55%) were called active. This list was built around the results that the source calls inconclusive (neither active nor inactive); the mix of calls is not that of the screen. Calls follow the shape of the dose curve; as a rule, active = well fitted inhibition curve with a large enough effect; inconclusive = small, poorly fitted or top-dose-only effect, or another doubt; inactive = no such curve, though single readings can be large or run the other way. A potency beside an inconclusive call is a rough fit, not a confirmed value.

Biological target: DNA polymerase kappa (Homo sapiens) (UniProt Q9UBT6)
Assay: qHTS for Inhibitors of Polymerase Kappa
Details: purified Pol kappa, fluorescent DNA synthesis assay, 10 min; series mostly up to 107 µM; activity, negative = inhibition: at the top concentration
In short: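 Pol kappa 10 nM + cpd, 15 min RT; start w/ substrate 50 nM final; fluorescence kinetic read, 0 and 10 min. Neg ctrl: buffer, no enzyme.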
% is scaled to controls: 0 for no effect and ±100 for the full control effect; potency is read from the fitted curve at half-maximal effect; tags tell the direction and shape of the fitted curve.

UniProt Q9UBT6, sequence (Q9UBT6 whole entry, looked up): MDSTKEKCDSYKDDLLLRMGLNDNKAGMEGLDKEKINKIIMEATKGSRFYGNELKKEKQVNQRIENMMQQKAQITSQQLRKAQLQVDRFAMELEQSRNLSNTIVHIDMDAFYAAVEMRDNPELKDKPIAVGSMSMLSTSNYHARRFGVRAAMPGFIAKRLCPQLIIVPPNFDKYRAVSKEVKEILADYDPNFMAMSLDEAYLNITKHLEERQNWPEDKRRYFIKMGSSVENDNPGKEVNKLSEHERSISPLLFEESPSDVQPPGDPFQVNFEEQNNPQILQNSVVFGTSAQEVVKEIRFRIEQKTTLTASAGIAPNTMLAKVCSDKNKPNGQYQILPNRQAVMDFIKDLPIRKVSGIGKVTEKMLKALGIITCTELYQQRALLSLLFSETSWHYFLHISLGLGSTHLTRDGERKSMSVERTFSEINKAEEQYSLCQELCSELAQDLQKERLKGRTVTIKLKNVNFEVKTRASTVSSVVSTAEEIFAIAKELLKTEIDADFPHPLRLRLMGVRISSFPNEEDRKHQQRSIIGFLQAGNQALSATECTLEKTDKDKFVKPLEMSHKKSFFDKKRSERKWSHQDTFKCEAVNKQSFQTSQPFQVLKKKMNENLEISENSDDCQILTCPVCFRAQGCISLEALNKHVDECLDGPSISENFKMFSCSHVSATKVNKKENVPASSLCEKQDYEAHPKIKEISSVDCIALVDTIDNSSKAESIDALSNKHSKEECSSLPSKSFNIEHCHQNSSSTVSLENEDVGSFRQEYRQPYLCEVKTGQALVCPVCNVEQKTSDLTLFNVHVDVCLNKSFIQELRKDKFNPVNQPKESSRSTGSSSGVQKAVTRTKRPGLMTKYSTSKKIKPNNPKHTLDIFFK

Potency, inconclusive:
COc1ccccc1N1CCN(C(=O)c2cc(=O)c3cc(C)cc(C)c3o2)CC1 79.4 µM [inhibitor, partial curve, poor fit]
COc1ccc(NC(=O)c2cc3c(s2)CCC3)cc1S(=O)(=O)N1CCOCC1 89.1 µM [inhibitor, single point]
NC(=O)c1ccsc1NC(=O)COC(=O)/C=C/c1ccc([N+](=O)[O-])cc1 79.4 µM [inhibitor, partial curve, poor fit]
Cc1nn(CCCC(=O)NCCc2ccc(Cl)cc2)c(=O)c2c1sc1ccccc12 56.2 µM [inhibitor, partial curve, poor fit]
CC(=O)N(C(C)=O)c1nc(-c2ccccc2)cn1/N=C/c1ccccc1 79.4 µM [inhibitor, single point]
CC1CCN(C(=O)c2cc(-c3cccc(Cl)c3)on2)CC1 79.4 µM [inhibitor, partial curve, poor fit]
CC(=O)Nc1ccc(S(=O)(=O)NCCSCc2ccco2)cc1 89.1 µM [inhibitor, single point]
NC(=S)n1[nH]c(-c2ccc([N+](=O)[O-])cc2)c(N=Nc2ccc(Cl)cc2)c1=O 89.1 µM [inhibitor, single point]
CC(C)c1ccc(NS(=O)(=O)c2ccc3[nH]cc(C(=O)N4CCCC4)c(=O)c3c2)cc1 89.1 µM [inhibitor, single point]
COc1ccc(C(=O)N2CCC[C@@]3(CCN(C(=O)Nc4cccc(F)c4)C3)C2)cc1 5.62 µM [inhibitor, partial curve, poor fit]
O=C(Cc1cccs1)Nc1nnc(SCc2ccc(Br)cc2)s1 89.1 µM [inhibitor, single point]
N#C/C(=C/c1ccc(-c2ccc(C(=O)O)c(Cl)c2)o1)C(=O)NCC1CCCO1 (stereo not drawn) 89.1 µM [inhibitor, partial curve, poor fit]
O=C(Nc1ccc2oc(=O)ccc2c1)c1cc([N+](=O)[O-])ccc1N1CCOCC1 89.1 µM [inhibitor, single point]
N#C/C(=C/c1cccn1-c1cccc(C(=O)O)c1)c1ccc(F)cc1 89.1 µM [inhibitor, partial curve, poor fit]
O=C(c1cc(C(F)(F)F)cc(C(F)(F)F)c1)N1CCC[C@@]2(CCN(c3ccccn3)C2)C1 28.2 µM [inhibitor, partial curve, poor fit]
CC(=O)N[C@@H](Cc1c[nH]c2ccccc12)C(=O)OCc1cc(C(F)(F)F)cc(C(F)(F)F)c1 42.3 µM [inhibitor, single point]
Cc1oc2c(O)c(O)ccc2c(=O)c1-c1ccccc1 56.2 µM [inhibitor, partial curve, poor fit]
COc1ccccc1-c1nnc2n1N=C(c1ccc(OC(F)F)c(OCC3CC3)c1)CS2 17.8 µM [inhibitor, partial curve, poor fit]
COc1cc(/C=C2/C(=O)NN(c3ccc(F)cc3)C2=O)cc([N+](=O)[O-])c1O 89.1 µM [inhibitor, single point]
N[C@@H](CO)C(=O)O 0.355 µM [inhibitor, partial curve, poor fit]
COc1ccc(C(=O)COC(=O)c2ccc3c(c2)OCO3)c(OC)c1 89.1 µM [inhibitor, partial curve, poor fit]
CCOC(=O)c1c(-c2ccc(F)cc2)csc1NC(=O)CN1C(=O)NC2(CCCCC2C)C1=O (stereo not drawn) 89.1 µM [inhibitor, single point]
Cc1ccc(C(CC(=O)NCC2(c3ccccc3)CCCC2)c2ccccc2)c(O)c1 (stereo not drawn) 89.1 µM [inhibitor, partial curve, poor fit]
COc1ccc(CNC(=O)C(c2ccco2)N(C(=O)CNS(=O)(=O)c2ccccc2)c2ccccc2C)cc1 (stereo not drawn) 89.1 µM [inhibitor, partial curve, poor fit]
O=c1[nH]n(-c2ccc([N+](=O)[O-])cc2)c(=O)c2ccccc12 89.1 µM [inhibitor, single point]
CCC(/C=C1\Sc2ccc(OC)cc2N1CCO)=C\c1sc2ccc(OC)cc2[n+]1CCO 17.8 µM [inhibitor, full curve, poor fit]
CC(=O)Nc1ccc2nc3c(=O)n(C)c(=O)n(C)c3nc2c1 100 µM [inhibitor, single point]
CC(C)c1ccc(NC(=S)NNc2ccc(Cl)c(C(=O)O)c2)cc1 89.1 µM [inhibitor, single point]
C/C(N)=C(/C#N)C(=O)COC(=O)c1ccncc1 89.1 µM [inhibitor, single point]
O=C(CSc1nnc(NC(=O)C2CC(=O)N(c3ccc(F)cc3)C2)s1)NCc1ccco1 (stereo not drawn) 89.1 µM [inhibitor, partial curve, poor fit]
CCCN1C(=O)C2(c3ccccc31)c1c(oc3ccc(C)cc3c1=O)C(=O)N2CCOC (stereo not drawn) 89.1 µM [inhibitor, partial curve, poor fit]
CCOC(=O)C1=C(C)c2ccccc2OC1C(=O)OCC (stereo not drawn) 89.1 µM [inhibitor, partial curve, poor fit]

Potency, active:
Oc1ccc(/C=N/N=C/c2ccc(O)c(O)c2)cc1O 0.891 µM
O=C(NCc1ccccc1)c1ccc2nc(-c3ccco3)c(-c3ccco3)nc2c1 17.8 µM
N#C/C(=C\c1c[nH]c2ccccc12)C(=O)c1ccc(O)c(O)c1 5.97 µM
O=C(N/N=C/c1ccc(-c2ccccc2C(=O)O)o1)c1cccs1 25.1 µM
O=C(c1ccc(=O)oc1)N1CCCc2ccccc21 20 µM
O=C(Nc1nc(-c2ccco2)c(-c2ccco2)s1)c1ccc(F)cc1F 50.1 µM
CCN(CC)S(=O)(=O)c1cc(NC(=O)Cn2ncc(Cl)c(Cl)c2=O)ccc1C 70.8 µM
O=C(COC(=O)c1ccccc1Oc1ccccc1)NCc1ccco1 79.4 µM
O=C1OC2(c3cc(I)c(O)c(I)c3Oc3c2cc(I)c(O)c3I)c2c(Cl)c(Cl)c(Cl)c(Cl)c21 7.52 µM
Cc1ccc2c(c1C)NC(C(=O)O)C1CC=CC21 (stereo not drawn) 3.16 µM
Nc1cc(S(=O)(=O)O)cc([N+](=O)[O-])c1O 28.2 µM
C=CCn1c(SCC(=O)c2ccc(O)c(O)c2)nnc1-c1cccc(C)c1 44.7 µM

activity, negative = inhibition, inactive:
Cc1ccccc1C(=O)Nc1nc2nc(-c3ccccc3)cc(=O)n2[nH]1 -10.1%
Cc1ccc(C(=O)NCC(c2ccc3c(c2)OCO3)N2CCN(C)CC2)cc1C (stereo not drawn) -3.11% [at 60.1 µM]
CCOc1ccc(NC(=O)c2cnn(-c3ccc(C)c(C)c3)c2C2CCN(C(=O)OC(C)(C)C)CC2)cc1 -4.74%
CC1CCCCN1C(=O)CSc1nc(N)cc(=O)[nH]1 (stereo not drawn) -7.54%
COc1ccc(C(=O)Nc2cccc(NC(=O)c3ccc(OC)c(OC)c3)n2)cc1OC -15.6%
O=C(Cn1ncc2c3ccccc3n(Cc3ccccc3)c2c1=O)Nc1ccccc1C(F)(F)F -8.54%
COc1ccc2c(c1)OC(=O)CC2c1ccc2c(c1)OCO2 (stereo not drawn) -12.8%
O=C(O)c1ccc2nc(-c3cc4cc(F)ccc4oc3=O)[nH]c2c1 5.1% [at 60.1 µM]
Cc1cc(=O)oc2cc(Oc3ccc([N+](=O)[O-])cc3[N+](=O)[O-])ccc12 -7.54%
CCN(CC)C(=O)c1ccc(COc2ccc(Cl)c(C)c2)o1 0%
O=C(O)c1ccc2c(=O)[nH]c(CN3CCOCC3)nc2c1 -5.63%
CCOc1ccccc1CNC(=O)CN1C(=O)CCCc2ccccc21 0.578%
O=C(CN1C(=O)NC2(CCCCC2)C1=O)N1CCN(S(=O)(=O)c2ccccc2)CC1 6.13%
O=C(O)Cn1c2ccccc2c2n[nH]c(=S)nc21 -32.5%
O=C(CCn1c(=O)oc2ccccc21)NCc1ccc2c(c1)OCO2 6.48%
COc1ccccc1CNC(=O)Cn1c(-c2cccs2)cc2cc(F)ccc21 -2.34%
CN1C(=O)/C(=C/c2ccc(C(=O)Nc3ccc(O)cc3C(=O)O)cc2)SC1=S -8.94%
CN(CCO)c1nc(N)c2c(N)nc3c(c2c1C#N)CC(=O)N3Cc1cccs1 -7.5%
Oc1ccc(CN2CCN(Cc3ccccc3)CC2)c2cccnc12 -1.76%
CCOc1cc2sc(N3CCC(C(=O)Nc4ccc(C(C)C)cc4)CC3)nc2cc1Br -8.06%
CCCCOC(=O)c1ccc(Nc2nc3ccccc3c3nnc(C)n23)cc1 4.13%
COc1ccc(/C=N\NC(=O)CNC(=O)C(c2ccccc2)c2ccccc2)cc1[N+](=O)[O-] 1.37%
COc1ccc2cc3c(N)nn(C(=O)c4ccc(Cl)c([N+](=O)[O-])c4)c3nc2c1 -10.1%
Cc1ccc(-n2nc(C(=O)Nc3ccc(C)c(F)c3)c(=O)n(C)c2=O)cc1 -6.76% [at 60.1 µM]
Cc1cccc(C(=O)NCC(=O)OC(C)C(=O)Nc2ccc(Cl)cn2)c1 (stereo not drawn) -1.09%
C/C(=N/NC(=O)CSc1nc2ccccc2n1C)c1ccco1 -5.14%
N#Cc1ccsc1NC(=O)CSc1nnnn1-c1ccc(O)cc1 0%
Cc1oc2ccc(O)c(CN3CCCC3)c2c1C(=O)Nc1cccc(Cl)c1C -0.424%
O=c1c(S(=O)(=O)c2ccc(Cl)cc2)cn(Cc2ccccc2F)c2ccc(F)cc12 -12.3%
